{"source": "the antibiotic and cytotoxicity screens of Wong et al. (2023)", "note": "Some of the results follow.", "data": [{"tested_on": "HSkMC (human skeletal muscle cells)", "assay": "cytotoxicity call (relative viability < 0.9)", "conditions": "10 µM", "values": [{"compound": "COc1ccc(CN(C)C[C@H]2OCCCC[C@H](C)Oc3ccc(NC(=O)Nc4ccccc4)cc3C(=O)N([C@@H](C)CO)C[C@@H]2C)cc1", "cytotoxicity call": "inactive"}, {"compound": "C[C@@H]1CN([C@H](C)CO)C(=O)Cc2cc(NC(=O)Cc3cn(C)c4ccccc34)ccc2O[C@@H]1CN(C)C", "cytotoxicity call": "inactive"}, {"compound": "CC(C)NC(=O)N(C)C[C@H]1OCCCC[C@@H](C)Oc2ccc(NC(=O)Nc3ccccc3)cc2C(=O)N([C@H](C)CO)C[C@@H]1C", "cytotoxicity call": "inactive"}, {"compound": "Cc1ccc(S(=O)(=O)N(C)C[C@@H]2Oc3ccc(NC(=O)C4CC4)cc3CC(=O)N([C@H](C)CO)C[C@@H]2C)cc1", "cytotoxicity call": "inactive"}, {"compound": "C[C@H]1CN([C@@H](C)CO)C(=O)CCCn2cc(nn2)CO[C@@H]1CN(C)S(=O)(=O)c1ccc(-c2ccccc2)cc1", "cytotoxicity call": "inactive"}, {"compound": "C[C@H](CO)N1C[C@H](C)[C@H](CN(C)Cc2ccncc2)Oc2cc(C#CC(C)(C)O)ccc2S1(=O)=O", "cytotoxicity call": "inactive"}, {"compound": "C[C@@H]1CCCCO[C@@H](CN(C)S(=O)(=O)c2ccc(Cl)cc2)[C@H](C)CN([C@H](C)CO)C(=O)c2cc(NC(=O)c3ccccc3)ccc2O1", "cytotoxicity call": "inactive"}, {"compound": "Nc1nnc([C@H]2CCCO2)s1", "cytotoxicity call": "inactive"}, {"compound": "C[C@@H]1CN([C@H](C)CO)C(=O)c2cc(NS(=O)(=O)c3cccs3)ccc2O[C@@H](C)CCCCO[C@@H]1CN(C)S(=O)(=O)c1cn(C)cn1", "cytotoxicity call": "inactive"}, {"compound": "C[C@@H]1CCCCO[C@@H](CN(C)C(=O)Nc2ccc(F)cc2)[C@@H](C)CN([C@H](C)CO)C(=O)c2cc(NC(=O)Nc3ccc4c(c3)OCO4)ccc2O1", "cytotoxicity call": "inactive"}, {"compound": "O=C(C[C@@H]1C=C[C@H](NC(=O)Nc2cc(F)ccc2F)[C@@H](CO)O1)NCCCN1CCOCC1", "cytotoxicity call": "inactive"}, {"compound": "C[C@H]1CN([C@@H](C)CO)C(=O)c2cc(NC(=O)Nc3ccc(C(F)(F)F)cc3)ccc2O[C@H]1CN(C)Cc1ccc(C(=O)Nc2ccccc2N)cc1", "cytotoxicity call": "active"}, {"compound": "Cc1ccc(S[C@]2(C(=O)NC3CC3)CC(=O)N(Cc3ccccc3C(F)(F)F)[C@@H]2c2ccc(CO)cc2)cc1", "cytotoxicity call": "inactive"}, {"compound": "C[C@H]1CN([C@@H](C)CO)C(=O)c2cc(NC(=O)C3CC3)ccc2O[C@@H]1CN(C)Cc1ccc(Oc2ccccc2)cc1", "cytotoxicity call": "inactive"}, {"compound": "C[C@H](CO)N1C[C@H](C)[C@H](CN(C)S(=O)(=O)c2ccc(F)cc2)Oc2cc(C#Cc3ccc(F)cc3)ccc2S1(=O)=O", "cytotoxicity call": "inactive"}, {"compound": "C=COCCCCO", "cytotoxicity call": "inactive"}, {"compound": "C(=N\\c1ccc2ccccc2c1)/Nc1ccc2ccccc2c1", "cytotoxicity call": "inactive"}, {"compound": "COc1ccc(S(=O)(=O)N(C)C[C@@H]2OCCCC[C@H](C)Oc3ccc(NC(=O)Nc4cccc5ccccc45)cc3C(=O)N([C@H](C)CO)C[C@@H]2C)cc1", "cytotoxicity call": "inactive"}, {"compound": "C[C@H](CO)N1C[C@H](C)[C@@H](CN(C)C(=O)c2ccccc2)OCCCC[C@H](C)Oc2ccc(NC(=O)C3CCCCC3)cc2C1=O", "cytotoxicity call": "inactive"}, {"compound": "COc1ccc(S(=O)(=O)N(C)C[C@@H]2OCCCC[C@H](C)Oc3ccc(NC(=O)Nc4cccc5ccccc45)cc3C(=O)N([C@@H](C)CO)C[C@H]2C)cc1", "cytotoxicity call": "inactive"}, {"compound": "Cc1ccc(C(=O)NCCN2CCNC2=O)cc1", "cytotoxicity call": "inactive"}, {"compound": "COc1ccc2c3c(n(c2c1)C)[C@H](CO)N(CC1CCCCC1)C[C@]13CCN(CC1)Cc1nccs1", "cytotoxicity call": "inactive"}, {"compound": "COc1cc(NC(=O)CCN2CCC(OC(=O)Nc3ccccc3-c3ccccc3)CC2)c(Cl)cc1CNC[C@H](O)c1ccc(O)c2nc(O)ccc12", "cytotoxicity call": "inactive"}, {"compound": "CCS(=O)(=O)NCC[C@H]1CC[C@H](NS(=O)(=O)c2cccc(F)c2)[C@H](CO)O1", "cytotoxicity call": "inactive"}, {"compound": "C[C@@H]1CN([C@H](C)CO)S(=O)(=O)c2ccc(-c3ccc(F)cc3)cc2O[C@H]1CN(C)S(C)(=O)=O", "cytotoxicity call": "inactive"}, {"compound": "C[C@@H]1CN([C@@H](C)CO)C(=O)c2cccc(NC(=O)c3nc4ccccc4s3)c2O[C@@H]1CN(C)Cc1ccc(Cl)c(Cl)c1", "cytotoxicity call": "inactive"}, {"compound": "COCC#Cc1cnc2c(c1)C(=O)N([C@H](C)CO)C[C@@H](C)[C@H](CN(C)S(=O)(=O)c1cn(C)cn1)O2", "cytotoxicity call": "inactive"}, {"compound": "CN(C)CC(=O)N1[C@@H]2c3ccc(-c4ccccc4)c(=O)n3C[C@H]1[C@H](CO)[C@H]2C(=O)N1CCOCC1", "cytotoxicity call": "inactive"}, {"compound": "CC(C)NC(=O)Nc1ccc2c(c1)C(=O)N([C@H](C)CO)C[C@@H](C)[C@@H](CN(C)CC1CCCCC1)OCCCC[C@H](C)O2", "cytotoxicity call": "inactive"}, {"compound": "COC(=O)C1=CO[C@@H](O[C@@H]2O[C@H](CO)[C@@H](O)[C@H](O)[C@H]2O)[C@@H]2[C@@H](CO)C=C[C@H]12", "cytotoxicity call": "inactive"}, {"compound": "COC1=C(N)C(=O)c2nc(-c3nc(C(=O)O)c(C)c(-c4ccc(OC)c(OC)c4O)c3N)ccc2C1=O", "cytotoxicity call": "active"}, {"compound": "Cc1noc(C)c1NC(=O)N(C)C[C@H]1Oc2ccc(NS(=O)(=O)c3c(C)noc3C)cc2CC(=O)N([C@H](C)CO)C[C@H]1C", "cytotoxicity call": "inactive"}, {"compound": "Cc1ncc([N+](=O)[O-])n1C[C@@H](CN1CCOCC1)OP(=O)(O)O", "cytotoxicity call": "inactive"}, {"compound": "C[C@H]1CN([C@@H](C)CO)C(=O)c2cccc(NC(=O)Nc3ccc(C(F)(F)F)cc3)c2O[C@@H]1CN(C)C(=O)NC1CCCCC1", "cytotoxicity call": "active"}, {"compound": "C[C@H]1O[C@@H](OC[C@H]2O[C@@H](OC[C@]3(C)[C@H]4CC[C@@]5(C)[C@H](CC[C@H]6C7=CC(C)(C)CC[C@]7(C(=O)O)CC[C@@]65C)[C@@]4(C)CC[C@@H]3O)[C@@H](O)[C@@H](O)[C@@H]2O)[C@@H](O)[C@@H](O)[C@@H]1O", "cytotoxicity call": "inactive"}, {"compound": "CC(C)NC(=O)Nc1ccc2c(c1)C(=O)N([C@@H](C)CO)C[C@@H](C)[C@H](CN(C)Cc1ccc(C(=O)O)cc1)O2", "cytotoxicity call": "inactive"}, {"compound": "CC(=O)N[C@@H]1[C@@H](O)[C@H](O)[C@H](CO)O[C@@H]1O", "cytotoxicity call": "inactive"}, {"compound": "Cc1noc(C)c1NC(=O)N(C)C[C@@H]1OCCCC[C@@H](C)Oc2ccc(NS(=O)(=O)c3ccc(F)cc3)cc2C(=O)N([C@H](C)CO)C[C@H]1C", "cytotoxicity call": "inactive"}, {"compound": "C[C@H]1NC(=O)[C@H](Cc2ccccc2)NC(=O)[C@@]23C(=O)N[C@@H](Cc4ccccc4)[C@@H]2[C@H](C)[C@@]2(C)O[C@H]2[C@H]3/C=C/C/C=C\\CNC1=O", "cytotoxicity call": "inactive"}, {"compound": "Nc1cccc(C2=NCCN2)c1", "cytotoxicity call": "inactive"}]}]}
